PMC12136788
Some of the results follow.

T1: UNK ZnF1-6 (called full-length) (human, UniProt Q9C0B0 30-357)
T1 sequence: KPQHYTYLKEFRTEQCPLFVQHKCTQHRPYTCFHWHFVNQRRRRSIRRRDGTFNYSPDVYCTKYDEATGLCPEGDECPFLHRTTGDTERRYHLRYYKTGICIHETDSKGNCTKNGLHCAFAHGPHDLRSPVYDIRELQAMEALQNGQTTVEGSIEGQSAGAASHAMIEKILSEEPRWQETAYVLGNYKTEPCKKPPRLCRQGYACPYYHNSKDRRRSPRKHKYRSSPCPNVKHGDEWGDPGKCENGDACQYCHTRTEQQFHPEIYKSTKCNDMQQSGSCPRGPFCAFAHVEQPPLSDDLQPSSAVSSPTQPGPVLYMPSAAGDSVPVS

B1: chr16:82148161:82148730:-|three_prime_utr|ENSG00000135698|control|control|control (ssRNA)
RNA: GGGAGUUCUACAGUCCGACGAUCCCAGGGGUGCUUGGUGGAAGUCAGCAGGGCAUCUGGAGCUCAUCCCAAUGGUGUCUCUAUAGUUAUUAAUACUGUAACGUUUACUUGUAAAGAGAUUAUCAUUUUAGAAACAUGCUGUUUCAACAGAGGAUUGAGCAUCA
B2: chr6:144852070:144852171:+|3pUTR|ENSG00000152818|unk|total|mutant (ssRNA)
RNA: GGGAGUUCUACAGUCCGACGAUCAAGUCCUUAACCGUUCUUGAAACUCCCCGUUGUUUUCUUGUUGAAAGCAGACACACAUUCCGUGCACGGCUUAUUUUACCUUUCGGGUGAAAGAUCAGAUGUUUUUAUACCCUUCACUUGCAACAGAGGAUUGAGCAUCA
B3: ENSG00000107863:be:win_4801|CDS|ENSG00000107863|bound_else_gene|NA|bound_elsewhere_windowed (ssRNA)
RNA: GGGAGUUCUACAGUCCGACGAUCUCCAGUCGACUGAGCCCUGAGGUGCAAUCCGUGGCAGAGAGCAAGGGGGACGAGGCAGAUGACGAGAGAAGCGAACUCAUCAGUGAAGGGCGGCCUGUGGAAACCGACAGCGAGAGCGAGCAACAGAGGAUUGAGCAUCA
B4: chrX:17800420:17802010:-|CDS|ENSG00000131831|control|control|control (ssRNA)
RNA: GGGAGUUCUACAGUCCGACGAUCCUUCAGGGCUAUGACAUCAACAGCCAAGGGGAAGAGUCCAUGGGAAAUGCAGAGCCCCUUAGGAAACCCAUCAAAAACCGGAGCAUAAAGUUAAAGAAAGUGAACUCCCAGGAAAUACACCAACAGAGGAUUGAGCAUCA
B5: chr11:113276847:113276948:+|3pUTR|ENSG00000149294|msi1|FALSE|unique (ssRNA)
RNA: GGGAGUUCUACAGUCCGACGAUCAGAAGGGAAAAGCCAGCCCUUUGUAUAGAAAUUUUGCUUUUUUUUCCCUCAUUCUACUUUAGAACUGCAAGCUUGUGCACUGUGGAUGCGUGAAUAUUUUAGUGUGAAACGUGUUUUUGUCAACAGAGGAUUGAGCAUCA
B6: chr14:55048714:55048815:+|3pUTR|ENSG00000180008|msi1|FALSE|bound_elsewhere (ssRNA)
RNA: GGGAGUUCUACAGUCCGACGAUCUUUCUAAUUUUGAACAGAUGACUCAGUCCUAAAUCUUUGCCUUUAUUUCCUAUAAAAUGUAGGUGAUACUUGUAACUCGACUUCCUGGAGUUAAUUCUUCAGCAAGAGGUGACCCUGGGACAACAGAGGAUUGAGCAUCA
B7: chr7:111727939:111728040:-|3pUTR|ENSG00000128512|unk|total|mutant (ssRNA)
RNA: GGGAGUUCUACAGUCCGACGAUCAAGUGGUAAACCGUGAUAAAGACUCCUUUUGUACCUUUUUAUGUUCACUUUUUUUUAUACCGUUUAAUCUUAAAACCAAUACGAUAUUGUCAAACGAUACAAUGUGUGACAAUGUUGUAUCAACAGAGGAUUGAGCAUCA
B8: chr2:224001733:224001845:-|CDS|ENSG00000135919|unk|total|mutant (ssRNA)
RNA: GGGAGUUCUACAGUCCGACGAUCGGCCUCUGUGACGCUGCCUUCCAUCUGCUCCCACUUCAAUCCUCUGUCUCUCGAGGAACCCGGCUCCAACACGGGGAUCCAGGUUUUCAAUCAGAUUGUGAAGUCGAGGCCUCAUGACAACAACAGAGGAUUGAGCAUCA
B9: chr11:20121310:20121411:+|3pUTR|ENSG00000166833|msi1|FALSE|bound_elsewhere (ssRNA)
RNA: GGGAGUUCUACAGUCCGACGAUCAUUGUAACAUAGAAAUUGUAAAUAAUUGAUUAAAGUGCUGCAUUUUGAUGAAUUUUUUCUAGCCAUUUUUAAAGAGAAAACUAGGAAUUGAGUAUUUUGUGUACGGUAUGUUUCCAUCCUCAACAGAGGAUUGAGCAUCA
B10: chr7:127374855:127374969:-|CDS|ENSG00000048405|unk|FALSE|unique (ssRNA)
RNA: GGGAGUUCUACAGUCCGACGAUCCCUAGAAGCCAUAUAUCCAAGUGUGGACAAACGAGAAUAUAUUAUUAAGCUAGAACCCAUAGAAACUAAUCAAAAUGCAGUAUUUCAAUAUAUUUCGAGGACUGAUAAUCCUAUUGAAGUCAACAGAGGAUUGAGCAUCA
B11: chr7:88202242:88202358:+|3pUTR|ENSG00000008277|unk|total|mutant (ssRNA)
RNA: GGGAGUUCUACAGUCCGACGAUCUCAGGACCGAUAAGCAUGUACUCCUUUUUUAACUUGCUGGAAGACUUGCCCCUCCAAACCCGCACCCCCAAAAGACAACUUCUUUCAGAAACGGGGUGUUUUACCUAAACACCGCCGCUUCAACAGAGGAUUGAGCAUCA
B12: chr12:42456824:42456925:-|3pUTR|ENSG00000139174|unk|FALSE|unique (ssRNA)
RNA: GGGAGUUCUACAGUCCGACGAUCAUGAGCCACUGCGUCUGGCAAUAAUGUAACUUUGAAGCUUAAAAAUUAAUCCCAGUUUGUAGCAAUAACAGAAGACUAUCUACAACGGAAGAAAGAAGCAACUGCCUUACAGUUCUGUAACAACAGAGGAUUGAGCAUCA
B13: chr9:122916526:122916627:-|3pUTR|ENSG00000171448|unk|FALSE|unique (ssRNA)
RNA: GGGAGUUCUACAGUCCGACGAUCAUGCUUCCUAGCAUUGUGAUUUUUACAUGAUCCAGCCAAAGAGUACCAAUUCUAUGCAAUAGUGAGACUCUACCCUGUCAACCAAACAGCAUUUUUUGGUAUUUUCUGUCAACAUCAUUUCAACAGAGGAUUGAGCAUCA
B14: chr21:14371318:14371404:-|3pUTR|ENSG00000155304|msi1_unk|FALSE|overlapping (ssRNA)
RNA: GGGAGUUCUACAGUCCGACGAUCUAUGAAUAACAAUCUGAAGUCUUUUCAUAAAAAAAAUUAAUAAACUUUAGUUGUACAUUUAGCCAGUGUUAUUUGAAGUAUGUAACUUUUAAAAUAUUAAGUGUCUUGUAUGAUUAGAAUCAACAGAGGAUUGAGCAUCA
B15: chr3:68976711:68977116:-|CDS|ENSG00000163378|control|control|control (ssRNA)
RNA: GGGAGUUCUACAGUCCGACGAUCCUUUUUAGGAAUACCAAAGUUUUCAACUUUUUCAGCUUUAGAAUUUGUAAAUAUUUUUGUAGAAUAUCAUAUGACUGUAAUUCCAGAGUGUUCCAACUUGUUUAUGAUAUAUUUGGGUAACAACAGAGGAUUGAGCAUCA
B16: chr17:29575287:29575470:-|CDS|ENSG00000108262|control|control|control (ssRNA)
RNA: GGGAGUUCUACAGUCCGACGAUCUCUAGAGCUGGGCAAAGAGGAAGACUUCCACCCAGAGCUGGAAAGCCUGGAUGGAGACCUAGAUCCUGGGCUUCCCAGCACAGAGGAUGUCAUCUUGAAGACAGAGCAGGUCACCAAGAACAACAGAGGAUUGAGCAUCA
B17: chr8:80500255:80500365:+|CDS|ENSG00000205189|unk|FALSE|unique (ssRNA)
RNA: GGGAGUUCUACAGUCCGACGAUCGAAAAACCAAACUACAAAAAGAUUUAUUUAUAAUAUUCCACCUAAUAAUGAAACGAAUUUAGAAGAUUGCUCAGUAAUGCAGCCACCUGUUGCCUAUCCAGAAGAAAAUACACUACUCAUCAACAGAGGAUUGAGCAUCA
B18: chr7:123541454:123541562:-|3pUTR|ENSG00000128609|unk|total|mutant (ssRNA)
RNA: GGGAGUUCUACAGUCCGACGAUCUCCACCGUGUCAUUUUAUUUCCGUCAUUAUUGAAUUAUACCAUUUACUCUGUUUUCUUACCGUCUUAAUUUUAUUAUAUUUUGUUGUUACUGUAUUAUAUUUGAAAACCUUCAAAUCCGACAACAGAGGAUUGAGCAUCA
B19: chr4:56502255:56502306:+|3pUTR|ENSG00000174780|msi1_unk|FALSE|overlapping (ssRNA)
RNA: GGGAGUUCUACAGUCCGACGAUCAUUUCAGCUGGAGUCUGAAGAUACUUGUUUCUGUUCAAGUCCCACUUUAAAUUAUGUCUUAGGAGACUGAAAGUGGAAUCUUCUGAGCAUUCCUAAAUAUCUGCUUAGAAAUAUCAUGUGCAACAGAGGAUUGAGCAUCA
B20: chr5:75599425:75599511:+|3pUTR|ENSG00000122008|msi1_unk|FALSE|overlapping (ssRNA)
RNA: GGGAGUUCUACAGUCCGACGAUCGAAUAGCUUAAUUAAGAACUCACAGACUUUGACAAAGUGGUAACUAGACUUUUAAUUACUAGAUUCUUCAAAUUAGGCUUAAUGCCUGCUAGCAUGCCAAUCCAAUCCCAUGACUGAUGUCAACAGAGGAUUGAGCAUCA
B21: chr1:42176760:42176861:-|3pUTR|ENSG00000198815|msi1|FALSE|bound_elsewhere (ssRNA)
RNA: GGGAGUUCUACAGUCCGACGAUCGUCGCUCAGAUGUCCUUUGAAGUGGGAGGGAAUCAAUCCGGGGAUAAUUUCAAAUGGAAUAGAGUAUUUUGAUAUUGUUCAUUCAGAGGGUGAUGUGUACAUAUCUAUAUUGUAUAUAUGCAACAGAGGAUUGAGCAUCA
B22: chr1:193029531:193029688:-|CDS|ENSG00000116750|unk|FALSE|unique (ssRNA)
RNA: GGGAGUUCUACAGUCCGACGAUCUUGAUAUCUUCACUUUUAUAUUUUAUAGGUAAUUAAUAAUGCUUGUGCUACUCAAGCCAUAGUGAGUGUGUUACUGAACUGUACCCACCAGGAUGUCCAUUUAGGCGAGACAUUAUCAGACAACAGAGGAUUGAGCAUCA

Biological target: T1, UNK ZnF1-6 (called full-length)
Assay: nsRBNS (natural sequence RNA bind-n-seq); RBNS binding buffer (assumed for nsRBNS): 25 mM Tris pH 7.5, 150 mM KCl, 3 mM MgCl2, 0.01% Triton X-100, 500 ug/ml BSA, 20 U/ml SUPERase-In, 4 C; UNK is unkempt and MSI1 is Musashi-1; names of the RNAs are library labels; protein concentration not given here; high values mean tight binding

| Binder | binding signal |
| --- | --- |
| B1 | 1.51 enrichment R |
| B2 | 0.349 enrichment R |
| B3 | 0.993 enrichment R |
| B4 | 2.15 enrichment R |
| B5 | 1.38 enrichment R |
| B6 | 0.29 enrichment R |
| B7 | 2.33 enrichment R |
| B8 | 0.666 enrichment R |
| B9 | 2.34 enrichment R |
| B10 | 18.1 enrichment R |
| B11 | 0.606 enrichment R |
| B12 | 0.289 enrichment R |
| B13 | 0.419 enrichment R |
| B14 | 1.48 enrichment R |
| B15 | 9.89 enrichment R |
| B16 | 0.606 enrichment R |
| B17 | 9.28 enrichment R |
| B18 | 17 enrichment R |
| B19 | 0.869 enrichment R |
| B20 | 38.5 enrichment R |
| B21 | 1.26 enrichment R |
| B22 | 7.09 enrichment R |
